Test results as given in the supplement of paper PMC8728848.
The list shows a part of the results.

Assays:
Assay in all cases: glycan array binding signal (z-score within array); higher = stronger binding
Details in all cases: glycan notation: IUPAC condensed, linker removed
[1] = target: Neu5Ac(a2-3)Gal(b1-4)GlcNAc(b1-2)[Neu5Ac(a2-3)Gal(b1-4)GlcNAc(b1-4)]Man(a1-3)[GlcNAc(b1-4)][Neu5Ac(a2-3)Gal(b1-4)GlcNAc(b1-2)[Neu5Ac(a2-3)Gal(b1-4)GlcNAc(b1-6)]Man(a1-6)]Man(b1-4)GlcNAc(b1-4)GlcNAc
Procedure, shortened: (§1)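 The Consortium for Functional Glycomics database supplied 3228 glycan arrays, of which those lacking an available protein sequence were dropped. The binding signal, a within-array Z-score, was averaged across arrays of the same protein sequence and across linkers. Negative scores can be read as non-binding.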

[2] = target: Neu5Ac(a2-3)Gal(b1-4)GlcNAc(b1-2)[Neu5Ac(a2-3)Gal(b1-4)GlcNAc(b1-4)]Man(a1-3)[GlcNAc(b1-4)][Neu5Ac(a2-3)Gal(b1-4)GlcNAc(b1-4)Man(a1-6)]Man(b1-4)GlcNAc(b1-4)GlcNAc
Procedure, shortened: as §1

[3] = target: Neu5Ac(a2-3)Gal(b1-4)GlcNAc(b1-2)[Neu5Ac(a2-3)Gal(b1-4)GlcNAc(b1-6)]Man(a1-6)[Neu5Ac(a2-3)Gal(b1-4)GlcNAc(b1-2)Man(a1-3)]Man(b1-4)GlcNAc(b1-4)GlcNAc
Procedure, shortened: as §1

[4] = target: Neu5Ac(a2-3)Gal(b1-4)GlcNAc(b1-2)[Neu5Ac(a2-3)Gal(b1-4)GlcNAc(b1-6)]Man(a1-6)[Neu5Ac(a2-3)Gal(b1-4)GlcNAc(b1-2)Man(a1-3)][GlcNAc(b1-4)]Man(b1-4)GlcNAc(b1-4)GlcNAc
Procedure, shortened: as §1

[5] = target: Neu5Ac(a2-3)Gal(b1-4)GlcNAc(b1-3)Gal
Procedure, shortened: as §1

[6] = target: Neu5Ac(a2-3)Gal(b1-4)GlcNAc(b1-3)Gal(b1-3)GlcNAc
Procedure, shortened: as §1

[7] = target: Neu5Ac(a2-3)Gal(b1-4)GlcNAc(b1-3)Gal(b1-4)GlcNAc
Procedure, shortened: as §1

[8] = target: Neu5Ac(a2-3)Gal(b1-4)GlcNAc(b1-3)Gal(b1-4)GlcNAc(b1-2)Man(a1-3)[Neu5Ac(a2-3)Gal(b1-4)GlcNAc(b1-3)Gal(b1-4)GlcNAc(b1-2)Man(a1-6)]Man(b1-4)GlcNAc(b1-4)GlcNAc
Procedure, shortened: as §1

[9] = target: Neu5Ac(a2-3)Gal(b1-4)GlcNAc(b1-3)Gal(b1-4)GlcNAc(b1-3)Gal(b1-4)GlcNAc
Procedure, shortened: as §1

[10] = target: Neu5Ac(a2-3)Gal(b1-4)GlcNAc(b1-3)Gal(b1-4)GlcNAc(b1-3)Gal(b1-4)GlcNAc(b1-2)Man(a1-3)[Neu5Ac(a2-3)Gal(b1-4)GlcNAc(b1-3)Gal(b1-4)GlcNAc(b1-3)Gal(b1-4)GlcNAc(b1-2)Man(a1-6)]GalNAc
Procedure, shortened: as §1

[11] = target: Neu5Ac(a2-3)Gal(b1-4)GlcNAc(b1-3)Gal(b1-4)GlcNAc(b1-3)GalNAc
Procedure, shortened: as §1

[12] = target: Neu5Ac(a2-3)Gal(b1-4)GlcNAc(b1-3)Gal(b1-4)GlcNAc(b1-3)[Neu5Ac(a2-3)Gal(b1-4)GlcNAc(b1-3)Gal(b1-4)GlcNAc(b1-6)]GalNAc
Procedure, shortened: as §1

[13] = target: Neu5Ac(a2-3)Gal(b1-4)GlcNAc(b1-3)Gal(b1-4)GlcNAc(b1-6)[Gal(b1-3)]GalNAc
Procedure, shortened: as §1

[14] = target: Neu5Ac(a2-3)Gal(b1-4)GlcNAc(b1-3)Gal(b1-4)[Fuc(a1-3)]GlcNAc
Procedure, shortened: as §1

[15] = target: Neu5Ac(a2-3)Gal(b1-4)GlcNAc(b1-3)GalNAc
Procedure, shortened: as §1

[16] = target: Neu5Ac(a2-3)Gal(b1-4)GlcNAc(b1-3)[Neu5Ac(a2-3)Gal(b1-4)GlcNAc(b1-6)]GalNAc
Procedure, shortened: as §1

[17] = target: Neu5Ac(a2-3)Gal(b1-4)GlcNAc(b1-6)GalNAc
Procedure, shortened: as §1

[18] = target: Neu5Ac(a2-3)Gal(b1-4)GlcNAc(b1-6)[Gal(b1-3)]GalNAc
Procedure, shortened: as §1

[19] = target: Neu5Ac(a2-3)Gal(b1-4)GlcNAc(b1-6)[Neu5Ac(a2-3)Gal(b1-3)]GalNAc
Procedure, shortened: as §1

[20] = target: Neu5Ac(a2-3)Gal(b1-4)GlcNAc6S
Procedure, shortened: as §1

[21] = target: Neu5Ac(a2-3)Gal(b1-4)[Fuc(a1-3)]GlcNAc
Procedure, shortened: as §1

[22] = target: Neu5Ac(a2-3)Gal(b1-4)[Fuc(a1-3)]GlcNAc(b1-2)Man
Procedure, shortened: as §1

[23] = target: Neu5Ac(a2-3)Gal(b1-4)[Fuc(a1-3)]GlcNAc(b1-3)Gal
Procedure, shortened: as §1

[24] = target: Neu5Ac(a2-3)Gal(b1-4)[Fuc(a1-3)]GlcNAc(b1-3)Gal(b1-4)GlcNAc
Procedure, shortened: as §1

[25] = target: Neu5Ac(a2-3)Gal(b1-4)[Fuc(a1-3)]GlcNAc(b1-3)Gal(b1-4)[Fuc(a1-3)]GlcNAc(b1-3)Gal(b1-4)[Fuc(a1-3)]GlcNAc
Procedure, shortened: as §1

[26] = target: Neu5Ac(a2-3)Gal(b1-4)[Fuc(a1-3)]GlcNAc(b1-3)GalNAc
Procedure, shortened: as §1

[27] = target: Neu5Ac(a2-3)Gal(b1-4)[Fuc(a1-3)]GlcNAc(b1-6)[Gal(b1-3)]GalNAc
Procedure, shortened: as §1

[28] = target: Neu5Ac(a2-3)Gal(b1-4)[Fuc(a1-3)]GlcNAc(b1-6)[Neu5Ac(a2-3)Gal(b1-3)]GalNAc
Procedure, shortened: as §1

[29] = target: Neu5Ac(a2-3)Gal(b1-4)[Fuc(a1-3)]GlcNAc6S
Procedure, shortened: as §1

[30] = target: Neu5Ac(a2-3)Gal6S(b1-4)GlcNAc
Procedure, shortened: as §1

[31] = target: Neu5Ac(a2-3)Gal6S(b1-4)[Fuc(a1-3)]GlcNAc
Procedure, shortened: as §1

Neu5Ac(a2-3)GalNAc = target: Neu5Ac(a2-3)GalNAc
Procedure, shortened: as §1

[32] = target: Neu5Ac(a2-3)GalNAc(b1-4)GlcNAc
Procedure, shortened: as §1

[33] = target: Neu5Ac(a2-3)[GalNAc(b1-4)]Gal(b1-4)Glc
Procedure, shortened: as §1

[34] = target: Neu5Ac(a2-3)[GalNAc(b1-4)]Gal(b1-4)GlcNAc
Procedure, shortened: as §1

[35] = target: Neu5Ac(a2-3)[GalNAc(b1-4)]Gal(b1-4)GlcNAc(b1-3)GalNAc
Procedure, shortened: as §1

[36] = target: Neu5Ac(a2-3)[Neu5Ac(a2-6)]GalNAc
Procedure, shortened: as §1

Neu5Ac(a2-6)Gal = target: Neu5Ac(a2-6)Gal
Procedure, shortened: as §1

[37] = target: Neu5Ac(a2-6)Gal(b1-3)GlcNAc(b1-3)[Gal(b1-4)GlcNAc(b1-6)]Gal(b1-4)Glc
Procedure, shortened: as §1

Neu5Ac(a2-6)Gal(b1-4)Glc = target: Neu5Ac(a2-6)Gal(b1-4)Glc
Procedure, shortened: as §1

[38] = target: Neu5Ac(a2-6)Gal(b1-4)GlcNAc
Procedure, shortened: as §1

[39] = target: Neu5Ac(a2-6)Gal(b1-4)GlcNAc(b1-2)Man
Procedure, shortened: as §1

[40] = target: Neu5Ac(a2-6)Gal(b1-4)GlcNAc(b1-2)Man(a1-3)Man(b1-4)GlcNAc(b1-4)GlcNAc
Procedure, shortened: as §1

[41] = target: Neu5Ac(a2-6)Gal(b1-4)GlcNAc(b1-2)Man(a1-3)[Gal(b1-4)GlcNAc(b1-2)Man(a1-6)]Man(b1-4)GlcNAc(b1-4)GlcNAc
Procedure, shortened: as §1

[42] = target: Neu5Ac(a2-6)Gal(b1-4)GlcNAc(b1-2)Man(a1-3)[GlcNAc(b1-2)Man(a1-6)]Man(b1-4)GlcNAc(b1-4)GlcNAc
Procedure, shortened: as §1

B1: CpGal16 (Clavelina picta) (protein)
chain: MAKMITNYVGKRIECIMVATDMMSTVFSLASATGDLPFYINFRQRENSIVMNTRVHGKWQYEKSQSSGGMNFYEPFRLVVEVRPSVFKVTVSTMGEEDGITFNLQYSQITIKPDEIVAMHLGYCNLRSELLVTDL
[1]
  glycan array binding signal (z-score): -0.483
[2]
  glycan array binding signal (z-score): -0.448
[3]
  glycan array binding signal (z-score): -0.211
[4]
  glycan array binding signal (z-score): -0.443
[5]
  glycan array binding signal (z-score): -0.387
[6]
  glycan array binding signal (z-score): -0.491
[7]
  glycan array binding signal (z-score): -0.401
[8]
  glycan array binding signal (z-score): -0.159
[9]
  glycan array binding signal (z-score): -0.408
[10]
  glycan array binding signal (z-score): 0.222
[11]
  glycan array binding signal (z-score): -0.446
[12]
  glycan array binding signal (z-score): -0.317
[13]
  glycan array binding signal (z-score): -0.28
[14]
  glycan array binding signal (z-score): -0.293
[15]
  glycan array binding signal (z-score): -0.476
[16]
  glycan array binding signal (z-score): -0.349
[17]
  glycan array binding signal (z-score): -0.325
[18]
  glycan array binding signal (z-score): -0.422
[19]
  glycan array binding signal (z-score): -0.324
[20]
  glycan array binding signal (z-score): -0.266
[21]
  glycan array binding signal (z-score): -0.429
[22]
  glycan array binding signal (z-score): -0.393
[23]
  glycan array binding signal (z-score): -0.51
[24]
  glycan array binding signal (z-score): -0.19
[25]
  glycan array binding signal (z-score): -0.483
[26]
  glycan array binding signal (z-score): 0.159
[27]
  glycan array binding signal (z-score): 0.134
[28]
  glycan array binding signal (z-score): -0.216
[29]
  glycan array binding signal (z-score): -0.373
[30]
  glycan array binding signal (z-score): -0.459
[31]
  glycan array binding signal (z-score): -0.325
Neu5Ac(a2-3)GalNAc
  glycan array binding signal (z-score): -0.152
[32]
  glycan array binding signal (z-score): -0.258
[33]
  glycan array binding signal (z-score): -0.38
[34]
  glycan array binding signal (z-score): -0.468
[35]
  glycan array binding signal (z-score): -0.325
[36]
  glycan array binding signal (z-score): -0.237
Neu5Ac(a2-6)Gal
  glycan array binding signal (z-score): -0.316
[37]
  glycan array binding signal (z-score): -0.52
Neu5Ac(a2-6)Gal(b1-4)Glc
  glycan array binding signal (z-score): -0.291
[38]
  glycan array binding signal (z-score): -0.456
[39]
  glycan array binding signal (z-score): -0.459
[40]
  glycan array binding signal (z-score): -0.232
[41]
  glycan array binding signal (z-score): -0.325
[42]
  glycan array binding signal (z-score): -0.373
